From patent US10299477B2 (priority 2015, dated 2019)

Experiments:
Assay type in all cases: in vivo
[1] = test system: Blumeria graminis f sp. hordei; assay: Test Example D: Powdery mildew on barley; settings: powdery mildew on barley; 250 ppm spray
Text: [Test Example D] Powdery Mildew on Barley
After the sprayed dilutions were dried, conidia of Blumeria graminis f sp. hordei were inoculated to the plants by shaking off.

[2] = test system: Botrytis cinerea; assay: Test Example B: Gray mold on tomato; settings: gray mold on tomato, Botrytis cinerea; 250 ppm spray
Text: [Test Example B] Gray Mold on Tomato
Seeds of a test plant (tomato variety: Oogata Fukuju) were planted followed by cultivating until three to five first leaves (true leaves) appeared.

[3] = test system: Plasmopara viticola; assay: Test Example G: Downy mildew on vine; settings: downy mildew on vine, Plasmopara viticola; 250 ppm spray, 7-10 days after inoculation
Text: [Test Example G] Downy Mildew on Vine
Seeds of a test plant (grape variety: Neomuscat) were planted followed by cultivating until three to four first leaves appeared. […] After the sprayed dilutions were dried, a zoosporangia suspension (1-2×10^4 zoosporangia/ml) of Plasmopara viticola was inoculated to the plants by spraying.

[4] = test system: Alternaia brassicicola; assay: Test Example C: Alternaria sooty spot on cabbage; settings: Alternaria sooty spot on cabbage; 250 ppm spray
Text: [Test Example C] Alternaria Sooty Spot on Cabbage
Seeds of a test plant (cabbage variety: Shikidori) were planted followed by cultivating until the cotyledons extended.

[5] = test system: Puccinia recondita; assay: Test Example E: Brown rust on wheat; settings: brown rust on wheat, Puccinia recondita; 250 ppm spray
Text: [Test Example E] Brown Rust on Wheat

Row | Structure (SMILES) | Test D (control value class) [1] | Test B (control value class) [2] | Test G (control value class) [3] | Test C (control value class) [4] | Test E (control value class) [5]
1 | Cn1c(-c2c(F)cc(F)cc2F)c(-c2cccc(F)c2Cl)ccc1=O [Compound 491] | H (H shows more than 50% of control values) | H (H shows more than 50% of control values) | L (L shows 50% or less of control values) | H (H shows more than 50% of control values) | H (H shows more than 50% of control values)
2 | COc1cc(F)c(-c2c(-c3cccc(F)c3Cl)ccc(=O)n2C)c(F)c1 [Compound 492] | H (H shows more than 50% of control values) | H (H shows more than 50% of control values) | L (L shows 50% or less of control values) | H (H shows more than 50% of control values) | H (H shows more than 50% of control values)
3 | CCn1c(-c2c(F)cccc2F)c(-c2cccc(Cl)c2F)cc(C)c1=O [Compound 493] | H (H shows more than 50% of control values) | H (H shows more than 50% of control values) | L (L shows 50% or less of control values) | H (H shows more than 50% of control values) | H (H shows more than 50% of control values)
4 | O=c1ccc(-c2cccc(Cl)c2F)c(-c2c(F)cccc2F)n1CC(F)F [Compound 494] | H (H shows more than 50% of control values) | L (L shows 50% or less of control values) | L (L shows 50% or less of control values) | H (H shows more than 50% of control values) | L (L shows 50% or less of control values)
5 | O=c1c(Cl)cc(-c2cccc(Cl)c2F)c(-c2c(F)cccc2F)n1CC(F)F [Compound 495] | L (L shows 50% or less of control values) | L (L shows 50% or less of control values) | L (L shows 50% or less of control values) | L (L shows 50% or less of control values) | L (L shows 50% or less of control values)
6 | COc1ccc(Cl)c(-c2ccc(=O)n(C3CC3)c2-c2c(F)cccc2F)c1 [Compound 496] | H (H shows more than 50% of control values) | H (H shows more than 50% of control values) | L (L shows 50% or less of control values) | H (H shows more than 50% of control values) | H (H shows more than 50% of control values)
7 | CCn1c(-c2c(F)cccc2F)c(-c2cc(F)ccc2F)cc(C)c1=O [Compound 497] | H (H shows more than 50% of control values) | H (H shows more than 50% of control values) | L (L shows 50% or less of control values) | H (H shows more than 50% of control values) | H (H shows more than 50% of control values)
8 | COc1ccc(Cl)c(-c2cc(Cl)c(=O)n(C3CC3)c2-c2c(F)cccc2F)c1 [Compound 498] | H (H shows more than 50% of control values) | H (H shows more than 50% of control values) | H (H shows more than 50% of control values) | H (H shows more than 50% of control values) | H (H shows more than 50% of control values)
9 | Cc1cc(-c2cc(F)ccc2F)c(-c2c(F)cccc2F)n(C)c1=O [Compound 499] | H (H shows more than 50% of control values) | H (H shows more than 50% of control values) | H (H shows more than 50% of control values) | H (H shows more than 50% of control values) | H (H shows more than 50% of control values)
10 | Cn1c(-c2c(F)cc(F)cc2F)c(-c2cccc(F)c2Cl)cc(Cl)c1=O [Compound 500] | H (H shows more than 50% of control values) | H (H shows more than 50% of control values) | H (H shows more than 50% of control values) | H (H shows more than 50% of control values) | H (H shows more than 50% of control values)
11 | Cn1c(-c2c(F)cc(F)cc2F)c(-c2cccc(F)c2Cl)cc(Br)c1=O [Compound 503] | H (H shows more than 50% of control values) | H (H shows more than 50% of control values) | H (H shows more than 50% of control values) | H (H shows more than 50% of control values) | H (H shows more than 50% of control values)
12 | COc1cc(F)c(-c2c(-c3cccc(F)c3Cl)cc(Cl)c(=O)n2C)c(F)c1 [Compound 504] | H (H shows more than 50% of control values) | H (H shows more than 50% of control values) | H (H shows more than 50% of control values) | H (H shows more than 50% of control values) | H (H shows more than 50% of control values)
13 | Cc1cc(-c2cccc(F)c2Cl)c(-c2c(F)cc(F)cc2F)n(C)c1=O [Compound 505] | H (H shows more than 50% of control values) | H (H shows more than 50% of control values) | H (H shows more than 50% of control values) | H (H shows more than 50% of control values) | H (H shows more than 50% of control values)
14 | CCn1c(-c2c(F)cccc2F)c(-c2cccc(F)c2Cl)ccc1=O [Compound 506] | H (H shows more than 50% of control values) | H (H shows more than 50% of control values) | H (H shows more than 50% of control values) | H (H shows more than 50% of control values) | H (H shows more than 50% of control values)
15 | CCn1c(-c2c(F)cccc2F)c(-c2cccc(F)c2Cl)cc(Cl)c1=O [Compound 507] | H (H shows more than 50% of control values) | H (H shows more than 50% of control values) | H (H shows more than 50% of control values) | H (H shows more than 50% of control values) | H (H shows more than 50% of control values)
16 | Cn1c(-c2c(F)cccc2F)c(-c2cccc(F)c2Cl)ccc1=O [Compound 508] | H (H shows more than 50% of control values) | H (H shows more than 50% of control values) | H (H shows more than 50% of control values) | H (H shows more than 50% of control values) | H (H shows more than 50% of control values)
